Publication PMC6919601, “Identification of Plasmodium dipeptidyl aminopeptidase allosteric inhibitors by high throughput screening” (PLoS ONE, 2019)
The campaign covered roughly 110,000 compounds. About 230 (0.21%) showed an effect of 50% or more. The list shows a part of the results.

What follows are compounds tested against DPAP1 (Plasmodium falciparum, UniProt Q8IIJ9) (assay: primary screen, percent inhibition; read by cleavage of a fluorogenic dipeptide substrate; higher = more effect of the substance).
Sequence of DPAP1 (Q8IIJ9 whole entry, looked up): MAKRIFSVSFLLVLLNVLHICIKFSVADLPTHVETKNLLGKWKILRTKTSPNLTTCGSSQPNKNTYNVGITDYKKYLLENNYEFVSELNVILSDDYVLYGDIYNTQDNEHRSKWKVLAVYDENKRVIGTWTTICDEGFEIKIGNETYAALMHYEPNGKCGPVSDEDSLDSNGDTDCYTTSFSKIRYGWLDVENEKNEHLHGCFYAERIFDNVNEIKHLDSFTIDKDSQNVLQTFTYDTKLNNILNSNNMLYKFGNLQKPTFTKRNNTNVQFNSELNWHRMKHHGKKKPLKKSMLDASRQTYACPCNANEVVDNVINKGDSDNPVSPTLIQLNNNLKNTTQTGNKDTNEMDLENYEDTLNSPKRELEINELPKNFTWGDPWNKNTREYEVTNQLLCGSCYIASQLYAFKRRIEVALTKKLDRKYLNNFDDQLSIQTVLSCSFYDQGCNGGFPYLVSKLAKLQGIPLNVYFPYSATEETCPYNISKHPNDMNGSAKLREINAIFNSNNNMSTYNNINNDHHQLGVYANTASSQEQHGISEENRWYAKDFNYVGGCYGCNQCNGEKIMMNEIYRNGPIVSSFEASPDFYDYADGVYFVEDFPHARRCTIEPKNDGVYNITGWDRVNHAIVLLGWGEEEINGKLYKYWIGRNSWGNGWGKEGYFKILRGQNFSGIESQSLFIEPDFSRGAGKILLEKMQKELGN
Parameters: species or system P. falciparum D10 trophozoite lysates; single well
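Also: 30 min substrate incubation versus DMSO and 10 µM JCP410 controls.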

Compound | % Inhibition @ 10 uM [%]
COCCn1c(SCC(=O)NC2CCCCC2)nc2c(c1=O)SCC2 | -5.47
Cc1nn(Cc2ccccc2)c(N)c1-c1ccccc1 | -2.17
COc1ccccc1CNCc1cc(Br)ccc1OC | -5.26
CC1CCc2nc(NS(=O)(=O)c3ccccc3)sc2C1 (stereo not drawn) | -7.96
O=C(Cn1ncc2c1-c1ccccc1OC2)NCCN1CCOCC1 | 6.38
Cc1nc2ccccc2c2oc(C(=O)N3CCN(C4CCCCC4)CC3)cc12 | 7.66
CC(=O)Nc1ccc(S(=O)(=O)Nc2cccc(C(C)=O)c2)cc1 | 3.8
CCOC(=O)c1ccc2nc(C(F)(F)F)nc(NCCCO)c2c1 | 0.627
CCOc1ccc(C2(O)CSC3=C(C#N)C(c4ccc(O)c(OC)c4)CC(=O)N32)cc1 (stereo not drawn) | -1.96
Cc1nn(-c2ccccc2)c(C)c1NC(=O)c1cccs1 | 2.84
Cc1ccc2c(c1)C(C)(c1ccccc1)CC(C)(C)N2C(=O)CN1CCOCC1 (stereo not drawn) | 0.324
COc1ccc(-c2cc(-c3ccccc3)nc(S)c2C#N)cc1 | 43.3
COc1ccc(/C=C/C(=O)O)cc1S(=O)(=O)NC1CCS(=O)(=O)C1 (stereo not drawn) | 0.997
Cc1nn(-c2ccccn2)c(CC(C)(C)C(=O)O)c1C(=O)O | -0.834
CCC(Sc1nncn2c1cc1occc12)C(=O)NCCc1ccccc1 (stereo not drawn) | -4.99
Cc1ccc2c(c1)C1=C(C(c3ccccc3F)O2)C(c2ccccc2)n2ncnc2N1 (stereo not drawn) | -1.62
CCCc1ccc(C(C)NC(=O)c2cc(C)on2)cc1 (stereo not drawn) | -2.09
COc1ccccc1NS(=O)(=O)c1ccc(NC(=O)c2c(Cl)c(C)nn2C)cc1 | 0.983
C1CN(c2nc(N3CCOCC3)nc(N3CCOCC3)n2)CCN1 | 2.4
Cc1ccc(S(=O)(=O)c2cnc3cc(F)c(F)cc3c2O)cc1 | -3.45
C=CCn1c(=O)sc2cc(Br)ccc21 | 3.15
CC(C)Oc1ccc(C2CC(=O)NC(=O)N2)cc1 (stereo not drawn) | -4.52
CC1CCN(c2oc(-c3ccc(F)cc3)nc2S(=O)(=O)c2ccccc2)CC1 | 0.032
Cc1ccc(-n2c(SCC(=O)Nc3nnc(C)s3)nc3c4ccccc4nc-3c2O)cc1 | 4.06
O=S(=O)(Nc1ccc(F)cc1)c1ccc2ccccc2c1 | -3.03
O=C(O)CCS(=O)(=O)c1ccc2ccccc2c1 | -0.736

Compound | % Inhibition @ 10 uM [%]
CC(=O)CSc1cccc2c(SCC(C)=O)cccc12 | -5.47
Cc1ccc(CNS(=O)(=O)c2ccc(-c3ccc(O)nn3)s2)o1 | -1.06
CC(=O)Nc1ccc(-c2ccc(OCc3ccc([N+](=O)[O-])cc3)cc2)cc1 | 4.17
CN1CCN(Cc2ccc(C(F)(F)F)cc2)CC1 | -9.49
CCCC(=O)N1CCC(c2c[nH]c3ccccc23)(c2c[nH]c3ccccc23)CC1 | -6.24
COCc1[nH]c2ccc([N+](=O)[O-])cc2c1-c1ccccc1 | 1.2
COc1ccc(-c2nc3s/c(=C\c4cccc(Cl)c4)c(=O)n3n2)cc1OC | -1.18
O=C(c1ccc(F)cc1)n1nc(-c2ccco2)nc1NCc1cccs1 | 3.31
CC1=C(C(=O)OCc2ccccc2)C(c2cccc(F)c2)C2=C(O)CCCC2=N1 (stereo not drawn) | -5.59
Cc1ccc(NC=C2C(=O)NC(=S)NC2=O)cc1 | 0.266
Cc1ccc(NC(=O)Nc2ccc(C)c(N)c2)cc1N | 7.47
COCCNC(=O)Cn1c(C(=O)OC)ccc1-c1ccco1 | -2.17
O=C(CSc1ncnc2[nH]cnc12)Nc1ccc(Br)cc1Cl | -2.65
COc1ccc(Oc2nc3c(C)cccn3c(=O)c2/C=C(\C#N)S(=O)(=O)c2ccc(C)cc2)cc1 | -9.06
Cc1ccc(C2=NC(=S)N(c3ccc([N+](=O)[O-])cc3)CN2)cc1 | -2.59
N#Cc1cc2c(nc1SCC(=O)Nc1ccc(F)cc1)CCCC2 | 4.75
COc1ccccc1/C=C/c1nc(C#N)c(NCC2CCCO2)o1 (stereo not drawn) | 0.895
Cc1ccc(NC(=O)c2cc(C(=O)Nc3ccc(C)cc3)n(C)n2)cc1 | 1.76
Cc1ccc(S(=O)(=O)Nc2cncc(C(=O)NC3CCCC3)c2)cc1 | 1.51
COc1cc(/C=C2/NC(=O)N(CC(=O)Nc3cccc(C)c3)C2=O)cc(Cl)c1O | 7.29
COC(=O)c1sccc1NC(=S)N(C)Cc1ccccc1 | 4.06
COc1cc2c(cc1OC)C(COc1ccccc1OC)N(C(=O)/C=C/c1ccccc1)CC2 (stereo not drawn) | 9.62
Sc1nnc(-c2cccnc2)n1C1CCCCC1 | 0.587
CCOC(=O)N1CCN(c2c(NC3CCCC(C)C3C)c(=O)c2=O)CC1 (stereo not drawn) | -3.21
CC1CCc2sc(NC(=O)c3ccc(Br)o3)c(C#N)c2C1 (stereo not drawn) | 6.5
CCOc1c(Cl)cc(/C=c2\sc3nc4ccccc4n3c2=O)cc1OC | 3.04

Compound | % Inhibition @ 10 uM [%]
COc1ccc(CNC(=O)c2nc(SCc3ccc(F)cc3)ncc2Cl)cc1 | 2.2
O=C(NCC12CC3CC(CC(C3)C1)C2)c1nc(-c2ccc3c(c2)OCO3)no1 | 5.49
O=C(N/C(=C\c1ccccc1F)C(=O)N1CC2CC(C1)c1cccc(=O)n1C2)c1ccccc1 (stereo not drawn) | 9.1
Cc1nc2ncnn2c(C)c1CCC(=O)NCCCOC(C)C | 1.26
CCOC(=O)N1CCC(NC2CCCC(C)C2C)CC1 (stereo not drawn) | -1.5
O=C1CSc2nnc(Cn3nnc4ccccc43)n2N1 | -2.21
CCc1nn(CC(=O)NC(C)C)c(=O)c2cc3c(OC)cccc3n12 | -1.7
COc1cccc(/C=C2\CN(C)C/C(=C\c3cccc(OC)c3OC)C2=O)c1OC | 8.24
COC(=O)c1nc(N)n(-c2nc(-c3ccc(OC)cc3)cc(C(F)(F)F)n2)n1 | -1.21
CC(=O)N1C(=O)CC(C)N(C(C)=O)c2ccccc21 (stereo not drawn) | -3.77
COc1ccc(CCNC(=O)CCCN2C(=O)C(c3ccccc3)Oc3cccnc32)cc1OC (stereo not drawn) | -5.07
CC1=C(C(=O)OCCC(C)C)C(c2ccc(Cl)cc2)NC(=O)N1 (stereo not drawn) | -3.6
Cc1ccsc1C=C1C(=O)c2ccccc2C1=O | -1.26
Cc1ccc(OCCCc2c(C)n[nH]c2C)c(C)c1 | 6.49
O=C(NCc1cccnc1)c1ccc2c(Cl)c3c(nc2c1)CCCC3 | -2.14
N#Cc1c(C(F)(F)F)cc(-c2cccs2)nc1SCC(=O)N1CCOCC1 | 72.6
CCN1CCN(Cc2cccc([N+](=O)[O-])c2)CC1 | -0.127
CCO/C(O)=C1/C(C)=NC2=C(C(=O)CCC2)C1c1ccccc1 (stereo not drawn) | 3.04
Cc1[nH]c(-c2ccc(F)cc2)cc1C(=O)NCc1ccccn1 | -4.05
NC(=O)c1c(NC(=O)C2CCCN(C(=O)c3ccco3)C2)sc2c1CCCC2 (stereo not drawn) | 2.29
CCOc1ccc(CC(=O)Nc2ccccc2)cc1OCC | -0.088
CCCN1CCC(N2CCN(CCOCCO)CC2)CC1 | 2.99
CC1(c2ccc(Cl)cc2)NC(=O)NC1=O (stereo not drawn) | 1.27
C/C(=N\CCCN1CCOCC1)c1c(C(F)(F)F)nn(-c2nc3ccccc3s2)c1O | 6.12
COc1cccc(NC(=O)C23CCC(C)(c4nc5ccccc5nc42)C3(C)C)c1 (stereo not drawn) | -2.99
O=C1/C(=C/c2ccco2)N=C(N2CCCCC2)N1c1ccccc1 | -4.21

Compound | % Inhibition @ 10 uM [%]
Cc1cc2nc(C)n(Cc3ccccc3)c2cc1C | 6.89
COC(=O)c1cc2oc(C)cc2n1Cc1cccc(F)c1 | -1.85
Cc1cc2cc(CNC(=O)C3CCCC3)ccc2[nH]1 | 1.55
CC(Oc1ccccc1)C(=O)Nc1ccc2c(c1)OCO2 (stereo not drawn) | -2.65
Cc1ccc2nc(-c3ccccn3)cc(C(=O)O)c2c1 | -5.6
Cc1ccc(OCCCCCc2c(C)n[nH]c2C)cc1C | -0.351
CC(C)CNC(=O)C(=O)NCc1ccc(Cl)cc1Cl | -3.5
NC(=O)/C(=C/c1ccc(Br)cc1)NC(=O)c1ccco1 | 2.13
O=C(c1ccncc1)N1CCN(Cc2ccccc2)CC1 | 1.38
Cc1ccc(-c2c(S(=O)(=O)c3ccccc3)cnc3cc(C)nn23)cc1 | 0.873
Clc1ccccc1Cn1cccc1C1=NCCO1 | -1.58
COc1ccc(-c2cc(C(=O)O)c3cc(C(C)C)ccc3n2)cc1 | 6.13
Cc1cc(-n2nc(C)c(/C=N/CC(=O)O)c2O)ccc1Br | 3.27
Cc1ccc(NC=C2C(=O)NC(=O)NC2=O)cc1CN1C(=O)c2ccccc2C1=O | -4.41
O=C(NC1CCCCC1)c1ccc(Br)c(S(=O)(=O)N2CCCCCC2)c1 | -0.519
COc1cc(OC)cc(C(=O)Nc2ccc(N3CCN(C(=O)C(C)C)CC3)c(Cl)c2)c1 | 3.49
O=C(C1CCN(S(=O)(=O)c2ccccc2)CC1)N1CCN(Cc2ccccc2)CC1 | -3.97
COCCNC(=S)N(CCc1c(C)[nH]c2ccc(F)cc12)Cc1cccs1 | 1.5
CCOc1ccc2c(C)cc(=O)oc2c1OCC | -2.08
Cc1cc(C)cc(OCC(=O)N2CCN(c3ccc(Cl)cc3)CC2)c1 | 2.76
CCN(CC)Cc1c(O)ccc2occ(C(=O)c3ccc(OC)cc3)c12 | -6.48
NC(=O)C1CCN(CC(c2ccccc2)c2ccccc2)CC1 | -4.75
Cc1cc(NC(=O)CSc2nc(O)c(C#N)c(-c3ccccc3)n2)no1 | -3.63
CC1=C(C(=O)NCc2ccc(OC(C)C)cc2)C2(CCCCC2)OC1=O | 0.233
